# About 5,700 (2.6%) of roughly 220,000 compounds were called active. This list was built around the results that the source calls inconclusive (neither active nor inactive); the mix of calls is not that of the screen. Calls follow the shape of the dose curve; as a rule, active = well fitted inhibition curve with a large enough effect; inconclusive = small, poorly fitted or top-dose-only effect; inactive = no such curve, though single readings can be large or run the other way. A potency beside an inconclusive call is a rough fit, not a confirmed value.
# Molecular target: Lysine-specific demethylase 5B (Homo sapiens) (UniProt Q9UGL1)
# UniProt Q9UGL1, sequence (Q9UGL1 whole entry, looked up): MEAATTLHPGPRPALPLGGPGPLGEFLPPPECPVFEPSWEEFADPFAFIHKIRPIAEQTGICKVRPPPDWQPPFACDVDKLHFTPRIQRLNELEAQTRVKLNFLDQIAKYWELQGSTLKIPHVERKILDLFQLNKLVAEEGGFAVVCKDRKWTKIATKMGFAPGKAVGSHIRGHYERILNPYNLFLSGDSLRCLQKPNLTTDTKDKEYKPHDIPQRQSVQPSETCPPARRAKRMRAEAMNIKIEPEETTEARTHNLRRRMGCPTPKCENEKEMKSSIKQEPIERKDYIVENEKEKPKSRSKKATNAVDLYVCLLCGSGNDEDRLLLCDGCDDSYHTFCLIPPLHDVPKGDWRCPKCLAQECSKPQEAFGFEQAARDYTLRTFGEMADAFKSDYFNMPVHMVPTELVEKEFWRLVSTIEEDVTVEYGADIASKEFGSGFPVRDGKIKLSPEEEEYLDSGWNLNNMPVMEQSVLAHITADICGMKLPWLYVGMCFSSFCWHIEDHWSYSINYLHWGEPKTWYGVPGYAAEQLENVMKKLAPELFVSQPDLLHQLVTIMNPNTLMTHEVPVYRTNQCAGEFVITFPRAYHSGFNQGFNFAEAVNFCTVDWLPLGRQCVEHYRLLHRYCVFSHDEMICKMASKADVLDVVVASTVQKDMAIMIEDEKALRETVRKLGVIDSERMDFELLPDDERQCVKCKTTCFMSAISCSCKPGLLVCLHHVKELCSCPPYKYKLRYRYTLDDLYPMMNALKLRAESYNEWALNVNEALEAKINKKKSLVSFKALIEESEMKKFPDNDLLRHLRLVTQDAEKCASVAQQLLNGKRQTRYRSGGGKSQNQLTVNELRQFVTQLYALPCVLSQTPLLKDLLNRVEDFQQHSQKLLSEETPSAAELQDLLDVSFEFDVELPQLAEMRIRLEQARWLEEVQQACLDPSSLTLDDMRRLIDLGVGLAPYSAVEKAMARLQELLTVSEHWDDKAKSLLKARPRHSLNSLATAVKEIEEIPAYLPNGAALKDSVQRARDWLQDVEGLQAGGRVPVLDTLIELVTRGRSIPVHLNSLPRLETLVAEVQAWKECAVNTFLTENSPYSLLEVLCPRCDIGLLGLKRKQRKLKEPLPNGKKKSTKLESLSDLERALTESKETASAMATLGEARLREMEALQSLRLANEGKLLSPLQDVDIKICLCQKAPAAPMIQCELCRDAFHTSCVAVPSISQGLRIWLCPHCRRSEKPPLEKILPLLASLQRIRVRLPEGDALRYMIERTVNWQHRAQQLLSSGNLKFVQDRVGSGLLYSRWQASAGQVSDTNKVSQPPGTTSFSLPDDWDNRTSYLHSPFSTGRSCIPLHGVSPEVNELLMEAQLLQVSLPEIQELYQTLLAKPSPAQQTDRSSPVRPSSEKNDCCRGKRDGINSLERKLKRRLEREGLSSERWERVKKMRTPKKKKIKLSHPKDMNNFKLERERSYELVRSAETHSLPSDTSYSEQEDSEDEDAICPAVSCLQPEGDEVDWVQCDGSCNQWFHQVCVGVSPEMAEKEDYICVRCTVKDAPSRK
# Experiment: Primary screen for KDM5B Histone Demethylases FDH-coupled qHTS; also: nearly all actives have a fitted effect of over 70% in size
# Conditions: FDH-coupled NADH fluorescence (FDH is formaldehyde dehydrogenase); series mostly up to 57.7 µM
# Outline: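 KDM5BΔAP (200 nM final) in 50 mM HEPES pH 7.5, 0.01% Tween-20 was preincubated 10 min at RT with compound over a concentration range. Substrate mix (H3K4me3 12.5 µM, α-KG 25 µM, Fe²⁺, ascorbate, NAD⁺, FDH) was added, and NADH fluorescence change over 30 min gave dose-response curves.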
# Potency is read from the fitted curve at half-maximal effect; tags tell the direction and shape of the fitted curve.
row,SMILES,Potency
1,O=C(NCCN1CCOCC1)c1cc(-c2cccs2)nc2ccccc12,"inconclusive: 22.4 µM [inhibitor, partial curve, poor fit]"
2,O=C(c1ccccc1Cl)N1CCCN(c2cc(-c3ccc(F)cc3)[nH]n2)CC1,"inconclusive: 7.94 µM [inhibitor, partial curve, poor fit]"
3,O=C(NCCCNC(=O)c1ccccc1Br)c1nc2ccccc2c(=O)[nH]1,inactive
4,Fc1ccc(Nc2c(-c3c[nH]c4ccccc34)nc3ccccn23)cc1,"inconclusive: 35.5 µM [inhibitor, partial curve, poor fit]"
5,O=C1NCCCC[C@@H]1Nc1ccc(-c2nc(COc3ccccc3)no2)cn1,active: 28.2 µM
6,CCCCNC(=O)Cc1csc2nc(C)c(-c3cc(C)n(-c4cc(Cl)ccc4C)n3)c(=O)n12,active: 25.1 µM
7,CC(=O)NC(Nc1cc(C(F)(F)F)ccc1Cl)C(Cl)(Cl)Cl (stereo not drawn),inactive
8,O=C(CSc1ncc2c(n1)-c1cc(Cl)ccc1N(Cc1ccccc1)S2(=O)=O)NCc1ccccc1,"inconclusive: 10 µM [inhibitor, partial curve, poor fit]"
9,COc1ccc(-c2cc3nc4c(c(=O)n3[nH]2)CN(C(=O)c2ccc(C)cc2)CC4)cc1,"inconclusive: 10 µM [inhibitor, partial curve, poor fit]"
10,O=C(c1nc(-c2ccsc2)c2ccccn12)N1CCOCC1,active: 35.5 µM
11,Cc1ccc(-c2nnn3c2nc(N2CCC(C)CC2)c2ccccc23)cc1,"inconclusive: 2 µM [inhibitor, full curve, poor fit]"
12,O=C(COC(=O)/C=C/c1cccs1)Nc1ccc(F)cc1,inactive
13,CCCCCC(=O)N1CC[C@@H](CC(=O)N(C)CCC#N)[C@@H](CC)C1,inactive
14,CCn1c(=O)c(=O)[nH]c2cc(C(=O)N(C)Cc3ccc(OC)c(F)c3)ccc21,"inconclusive: 22.4 µM [inhibitor, single point]"
15,CCN(c1ccccc1)S(=O)(=O)c1ccc(N2CCN(c3ccc(OC)cc3)CC2)nc1,"inconclusive: 31.6 µM [inhibitor, partial curve, poor fit]"
16,COC(=O)[C@@H]1Cc2c([nH]c3ccccc23)[C@H]2C[C@@H](NCCN3CCOCC3)C[C@@H](c3ccc(F)cc3)N21,inactive
17,CN1CC(=O)N2CCN(C(=O)Cn3nnc4ccccc4c3=O)CC2C1=O (stereo not drawn),inactive
18,O=C1CC2(CCN(S(=O)(=O)c3ccccc3)CC2)Oc2ccccc21,active: 28.2 µM
19,O=C(NCCC(=O)N1CCCCCC1)c1cc(=O)[nH]c2ccccc12,"inconclusive: 28.2 µM [inhibitor, single point]"
20,CC(=O)N1CC2(CCN(CC3CCCCC3)CC2)Cc2ccccc21,inactive
21,CN1CC(=O)N(C2CCCNCC2)Cc2c1ncnc2N1CCCCC1 (stereo not drawn),"inconclusive: 89.1 µM [inhibitor, partial curve]"
22,COc1ccc(CN2CCNC(=O)C2CC(=O)N2CCCC2)c(C)c1C (stereo not drawn),"inconclusive: 28.2 µM [inhibitor, partial curve, poor fit]"
23,Cc1cccc(C)c1OCC(=O)Nc1c(C(=O)c2ccccc2)oc2ccccc12,"inconclusive: 2.82 µM [inhibitor, partial curve, poor fit]"

row,SMILES,Potency
1,CCc1ccccc1NC(=O)c1ncoc1-c1ccco1,"inconclusive: 7.94 µM [inhibitor, partial curve, poor fit]"
2,COc1ncccc1Nc1cnc2ccc(N(C)Cc3ccc(F)cc3)nn12,active: 31.6 µM
3,O=C1C(c2ccccc2)=S=C2c3ccccc3-c3ccccc3N12,inactive
4,Cc1ccc(CN2CCc3nn(C)c(=O)n3CC2)o1,"inconclusive: 17.8 µM [inhibitor, partial curve]"
5,Cc1cc(C(=O)N2CC[C@H]3C(=O)NCCCCCCN(Cc4ccncc4)[C@@H]3C2)nn1C,"inconclusive: 25.1 µM [inhibitor, partial curve, poor fit]"
6,Cc1cc(OCC(=O)Nc2ccc(CCO)cc2)c2c(C)cc(=O)oc2c1,"inconclusive: 28.2 µM [inhibitor, partial curve, poor fit]"
7,CC(C)CNC(=O)C(C)(C)Oc1nn(CC2CC2)c2ccc(CN3CCCC3)cc12,active: 39.8 µM
8,O=C(c1cccc(Cl)c1)N1CCN(c2cc(-c3ccc(Cl)cc3)[nH]n2)CC1,inactive
9,Cc1cccc(OCC2(CNC3CCN(C)CC3)C[C@@H](O)[C@@H](O)C2)n1 (stereo partly drawn),"inconclusive: 39.8 µM [inhibitor, partial curve, poor fit]"
10,CCOc1ccc(NC(=O)c2oc3ccccc3c2NC(=O)Cc2cccs2)cc1,"inconclusive: 39.8 µM [inhibitor, single point]"
11,COc1ccc(CNc2ncnc3c2CN(C2CCNCC2)C(=O)CN3C)cc1,"inconclusive: 44.7 µM [inhibitor, partial curve, poor fit]"
12,CC1(C)Cc2ccccc2/C(=C/C(=O)Nc2ccc(Cl)cc2)N1,"inconclusive: 35.5 µM [inhibitor, single point]"
13,Cc1cc(C)c(NC(=O)CSc2cn(CC(=O)N3CCOCC3)c3ccccc23)c(C)c1,"inconclusive: 6.31 µM [inhibitor, partial curve, poor fit]"
14,CCCOCCc1nc2c([nH]1)CC(C)(C)CNC2=O,inactive
15,COc1cccc(/C=C2\C=C(c3ccc(C)cc3)OC2=O)c1OC(C)=O,inactive
16,CN1C(=O)c2cccn2CC1CNC(=O)c1cccn1C (stereo not drawn),inactive
17,CCCCNc1cc(N2CCN(C3CCCCC3)CC2)c2noc3c2c1C(=O)c1ccccc1-3,"inconclusive: 7.08 µM [inhibitor, partial curve, poor fit]"
18,CN(Cc1ccccc1Cl)S(=O)(=O)c1cccc2nsnc12,inactive
19,COc1ccc([S+](=O)([O-])c2nnn3c2nc(NCCCOC(C)C)c2ccccc23)cc1,inactive
20,CCCCCCCNC(=O)CCC(=O)NCCCOC(C)C,inactive
21,COc1ccc(NC(=O)c2ccc3c(c2)OCCN(c2ccccc2)C3)c(F)c1,"inconclusive: 35.5 µM [inhibitor, single point]"
22,Cc1cc(C)c(NC(=O)CN2C(=O)CCn3nc(-c4cccn4C)cc32)c(C)c1,"inconclusive: 35.5 µM [inhibitor, single point]"
23,Cc1nc2ccc(C(=O)NC(C)c3ccccc3)cc2nc1C (stereo not drawn),inactive

row,SMILES,Potency
1,CN1CC(=O)N(C2CCCNCC2)Cc2c(NCc3cccc(Cl)c3)ncnc21 (stereo not drawn),"inconclusive: 56.2 µM [inhibitor, partial curve, poor fit]"
2,C=CCNC(=O)c1ccc(C(=O)NC(Cc2ccccc2)C(=O)O)cc1C(=O)O (stereo not drawn),inactive
3,CCOc1cc(-c2ccc(OC(=O)c3ccc(Cl)cc3)c(OC)c2)cc(=O)c2c(C)oc(C)c12,"inconclusive: 1.26 µM [inhibitor, partial curve, poor fit]"
4,Oc1c(C(c2ccc(Cl)cc2)N2CCCC2)sc2nc(-c3ccco3)nn12 (stereo not drawn),inactive
5,CC(C(=O)Nc1ccc(F)c(F)c1)N1CCC(C(=O)NCc2ccccc2)CC1 (stereo not drawn),inactive
6,CCOc1ccccc1C(=O)NCC(c1ccc(N(C)C)cc1)N1CCc2ccccc21 (stereo not drawn),"inconclusive: 35.5 µM [inhibitor, partial curve, poor fit]"
7,COc1ccccc1CNC(=O)c1cccc(NC(=O)N2CCSc3ncccc32)c1,"inconclusive: 31.6 µM [inhibitor, partial curve, poor fit]"
8,Cc1cccc(NC(=O)CSCn2nnc3c(=O)[nH]c(Cc4ccc(F)cc4)nc32)c1C,inactive
9,COc1cc(-c2nc3cccc(C)n3c2Nc2ccc3c(c2)OCCO3)ccc1O,"inconclusive: 28.2 µM [inhibitor, partial curve, poor fit]"
10,CC(C)[N+]1=C2C=CC=CC=C2SC12C([N+](=O)[O-])=CC(=[N+]([O-])[O-])C=C2[N+](=O)[O-] (stereo not drawn),"inconclusive: 22.4 µM [inhibitor, partial curve, poor fit]"
11,CC(=O)c1ccc(N2CCN(c3ncnc4onc(-c5ccc(Cl)cc5)c34)CC2)cc1,"inconclusive: 31.6 µM [inhibitor, partial curve, poor fit]"
12,COc1cccc(-n2c(SCC(=O)Nc3ccc(F)cc3F)nc3c([nH]c4ccccc43)c2=O)c1,"inconclusive: 39.8 µM [inhibitor, single point]"
13,CC(c1cccs1)N(C)C(=O)Cc1c[nH]c2ccccc12 (stereo not drawn),inactive
14,COc1cccc(CNC(=O)Cn2ccn3nc(-c4ccc(F)cc4)c(CO)c3c2=O)c1OC,"inconclusive: 35.5 µM [inhibitor, single point]"
15,COc1ccc(Nc2n[nH]c(C(O)c3cccc(C(F)(F)F)c3)n2)cc1OC (stereo not drawn),"inconclusive: 44.7 µM [inhibitor, single point]"
16,O=C(NCC1(COc2cccnc2)C[C@@H](O)[C@@H](O)C1)c1ccc(F)cc1 (stereo partly drawn),inactive
17,c1csc(-c2nc3ccccn3c2Nc2ccc3c(c2)OCCO3)c1,"inconclusive: 35.5 µM [inhibitor, partial curve, poor fit]"
18,Nc1nccnc1C(=O)NCc1ccc(N2CCCCC2)nc1,"inconclusive: 35.5 µM [inhibitor, partial curve, poor fit]"
19,COc1ccc2nc(-c3ccc4c(c3)OCO4)cc(C(=O)O)c2c1,"inconclusive: 39.8 µM [inhibitor, single point]"
20,CCn1cc(-c2cc3c(cn2)CN(Cc2ccncc2)CCN3)cn1,active: 31.6 µM
21,C=C(C)Cn1c(N(C)C)nc2c1c(=O)[nH]c(=O)n2C,inactive
22,CN(C)c1ccc(C(=O)N2CCC3(CC2)N=C(c2cccc(Br)c2)NO3)cc1,"inconclusive: 28.2 µM [inhibitor, single point]"

# — PubChem BioAssay AID1347165 (National Center for Advancing Translational Sciences (NCATS), 2019)
